Source: PubChem BioAssay AID1645887 (National Center for Advancing Translational Sciences (NCATS), 2021)
Several values for one entry are separate records, joined by “and”; a condition that tells them apart may be missing. Equal values may be shown once. Where a name gives a salt, the structure may show the parent alone. Screen size: about 16,000 compounds; about 40 (0.2%) were called active. Roughly 1% stayed inconclusive and do not appear here. The call rests on the fitted dose curve; in most records, active means well fitted activation curve with a large enough effect; inconclusive means small, poorly fitted or top-dose-only effect, or another doubt; inactive means no such curve, though single readings can be large or run the other way. This is one part of the list. Residues, ends and D or L forms follow the SMILES beside them. *: point of attachment. Tfa = O=C(C(F)(F)F)*

What follows are compounds tested against Rap guanine nucleotide exchange factor 4 (Homo sapiens) (UniProt Q8WZA2) (assay: Validation qHTS for agonist of cAMP-regulated guanine nucleotide exchange factor 4 (EPAC2)). Details: EPAC2 Rap1B BODIPY-GDP exchange, fluorescence; activation: hits give high values.
Sequence of UniProt Q8WZA2 (Q8WZA2 whole entry, looked up): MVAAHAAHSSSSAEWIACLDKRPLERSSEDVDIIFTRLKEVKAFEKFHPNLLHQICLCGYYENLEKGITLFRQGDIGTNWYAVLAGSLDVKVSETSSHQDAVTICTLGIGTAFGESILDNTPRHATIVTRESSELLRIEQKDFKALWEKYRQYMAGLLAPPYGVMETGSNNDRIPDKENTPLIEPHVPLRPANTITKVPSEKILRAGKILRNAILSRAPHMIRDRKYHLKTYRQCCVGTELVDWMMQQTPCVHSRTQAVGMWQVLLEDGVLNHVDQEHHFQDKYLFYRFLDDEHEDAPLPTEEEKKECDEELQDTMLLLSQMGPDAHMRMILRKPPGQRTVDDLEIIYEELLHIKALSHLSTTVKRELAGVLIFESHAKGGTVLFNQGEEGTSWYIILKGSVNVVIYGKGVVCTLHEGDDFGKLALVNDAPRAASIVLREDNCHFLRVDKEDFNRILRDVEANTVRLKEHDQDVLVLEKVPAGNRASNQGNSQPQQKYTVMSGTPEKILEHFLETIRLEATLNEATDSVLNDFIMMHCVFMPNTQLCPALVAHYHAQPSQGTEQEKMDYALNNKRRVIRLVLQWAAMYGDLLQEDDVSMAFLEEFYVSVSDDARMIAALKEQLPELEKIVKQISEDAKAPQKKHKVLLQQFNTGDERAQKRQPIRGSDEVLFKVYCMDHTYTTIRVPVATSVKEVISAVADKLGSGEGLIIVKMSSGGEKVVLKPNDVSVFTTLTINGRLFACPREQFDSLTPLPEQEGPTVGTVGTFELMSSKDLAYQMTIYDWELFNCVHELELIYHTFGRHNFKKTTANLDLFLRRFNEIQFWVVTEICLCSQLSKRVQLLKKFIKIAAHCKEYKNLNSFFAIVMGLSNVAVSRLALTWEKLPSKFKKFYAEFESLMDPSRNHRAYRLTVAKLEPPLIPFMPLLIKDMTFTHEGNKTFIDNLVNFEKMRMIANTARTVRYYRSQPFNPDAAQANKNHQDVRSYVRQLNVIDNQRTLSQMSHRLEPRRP
Procedure, shortened: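 Fluorescent exchange assay: 100 nM EPAC2 with 250 nM RAP1B-BODIPY-GDP and 50 uM GDP; compound added, 5 min at room temperature, then read (ex 480/em 540 nm) every 5 min for 30 min. Normalized to 6.5 mM cAMP agonist control.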
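Further: exchange makes BODIPY-GDP fluorescence drop when released from Rap1B; series mostly up to about 150 µM.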
On the % scale 0 is the no-effect control and ±100 the full control effect.

activation, inactive:
CCC(=O)N[C@@H]1c2ccccc2C2(CCN(Cc3[nH]c4c(Cl)cccc4c3C)CC2)[C@H]1OC -12.4%
CN1CCCC(CNC(=O)c2cnn(-c3ncc4c(n3)-c3ccccc3CC4)c2C2CC2)C1 (stereo not given) -10.8%
CNC1C(O)C(O[C@H]2C(O)[C@@H](OC3OC(CN)=CCC3N)[C@H](N)C[C@@H]2N)OC[C@]1(C)O (stereo not given in full) -17.3%
Cc1nc2cnc(Oc3ccccc3)nc2n(-c2ccccc2)c1=O -7.99%
O=C(C[n+]1ccccc1Br)c1ccc(-c2ccccc2)cc1 -21.3%
COc1cc2c(cc1OC)C(c1c[nH]c3ccccc13)NCC2 (stereo not given) 18.4%
CCCCC[C@H](O)CC(=O)CCc1ccc(O)c(OC)c1 -10.3% and -20.9%
CCOC(=O)C[C@H]1c2ccccc2S(=O)(=O)N1Cc1cc(OC)c(OC)c(OC)c1 -3.72%
CC(=O)OC[C@H]1O[C@@H](O[C@H]2[C@H](O)[C@@H](OC(=O)c3ccccc3C(=O)O)[C@H](O)O[C@@H]2COC(C)=O)[C@H](O)[C@@H](OC(=O)c2ccccc2C(=O)O)[C@@H]1O -9.7%
Cc1cc(O)cc(=O)o1 -4.17%
Cn1c(=O)c(CCc2ccccc2)nc2cnc(Oc3ccccc3)nc21 11%
Cc1cccc(CNC(=O)c2cnn(-c3nccc(-c4cccs4)n3)c2C(C)C)n1 -64.3%
C#CCOc1ccc2c(C)cc(=O)oc2c1 -10.7%
COc1ccc2[nH]c(S(=O)Cc3ncc(C)c(OC)c3C)nc2n1 (stereo not given) -19.9%
CS(=O)(=O)Nc1cccc(-c2cncnc2NCc2ccccc2)c1 -11.8%
CCC1=C[C@@H]2CN(C1)Cc1c([nH]c3ccccc13)[C@@](C(=O)OC)(c1cc3c(cc1OC)N(C)[C@@H]1[C@@](O)(C(=O)OC)[C@H](OC(C)=O)[C@]4(CC)C=CCN5CC[C@]31[C@@H]54)C2 -3.74%
CCc1c(C(=O)NCCc2ccc(N3CCCCC3)cc2)[nH]c2ccc(Cl)cc12 3.38%
Oc1ccc(C(O)CNCCCCCCNCC(O)c2ccc(O)c(O)c2)cc1O (stereo not given) -15.6%
Cc1cc(C(=O)Nc2ccccc2-c2nc(CNC(=O)c3ccccc3Cl)c(C)o2)c(C)o1 -6.95%
CCCCN(CCCC)C(=S)[S-].CCCCN(CCCC)C(=S)[S-].[Zn+2] -1.83%
CCN(Cc1ccncc1)Cc1ccc2c(c1)CN(C(=O)c1ccccc1)CCO2 0.0322%
Cc1cccc(Nc2ncccc2C(=O)O)c1C -1.47%
O=C1CCN(CCc2ccccc2)CCN1[C@H](CO)c1ccccc1 -15.2%
Cc1ccc(F)cc1CNC(=O)c1sc2ncnc(NCC3CCCO3)c2c1C (stereo not given) 0.647%
COc1ccc(Oc2ncc3nc(-c4ccc(F)cc4)c(=O)n(CCC#N)c3n2)cc1 6.35%
S=P(N1CC1)(N1CC1)N1CC1 -1.27% and 13.2% and -6.56%
COC(=O)C1CCN(Cc2ccc3c(c2)CN(C(=O)c2ccc4nc(C)c(C)nc4c2)CCO3)CC1 -10.6%
COCCN(C)C(=O)c1cnn(-c2nccc(-c3cc(C)sc3C)n2)c1C -2.24%
COc1cc(N)c(Cl)cc1C(=O)NC1CCN(Cc2ccccc2)CC1 -11.9% and -12.4%
O=c1c(-c2cccc(F)c2)nc2cncnc2n1Cc1ccccc1 5.38%
COc1ccc(SC[C@H](Cc2ccccc2)N2CC[C@@H](O)CCC2=O)cc1 -21.1%
COC(=O)N1CCC2(CCCN(C(=O)Nc3ccc(OC)cc3)C2)CC1 -15.1%
COc1cccc(CNC(=O)c2c(OC)cc(=O)n3c2CCN(C(=O)C2=C(C)OCCO2)CC3)c1 -9.38%
CCN1CCCC1CNC(=O)c1cc(S(=O)(=O)CC)c(N)cc1OC (stereo not given) -15.3% and -10.4%
Nc1nc(N)nc(-c2cc(Cl)ccc2Cl)n1 -5.11%
CCOC(=O)[C@H](CCc1ccccc1)N[C@@H](C)C(=O)N1CC2(C[C@H]1C(=O)O)SCCS2 -2.62%
NC(N)=NCCN1CCCCCCC1 -2.87% and 12.9%
COCC(=O)N1CCC[C@@]2(CCN(Cc3nccs3)C2)C1 1.3%
Cc1cnc(-n2ncc(C(=O)N(C)C3CCOC3)c2-c2cccs2)nc1-c1ccc(F)cc1 (stereo not given) -13.7%
Cc1nnsc1C(=O)NCC1Cc2cccc(-c3ncccn3)c2O1 (stereo not given) -8.82%
C[N+](C)(C)CCOP(=O)([O-])OP(=O)(O)OCC1OC(n2ccc(N)nc2=O)C(O)C1O (stereo not given) 4.48%
COCCn1c(=O)c(CCc2ccccc2)nc2cnc(Nc3ccccc3)nc21 -13.8%
CC1CCc2cc(F)cc3c(=O)c(C(=O)O)cn1c23 (stereo not given) -4.41%
O=C(NCC1CCCCN1)c1cc(OCC(F)(F)F)ccc1OCC(F)(F)F (stereo not given) -1.72% and -0.804%
OC[C@@H](O)[C@H](O)[C@H](O)[C@@H](O)CO -5.64% and -17%
COc1cc2c(cc1OC)-c1c(oc3cc(O)cc(O)c3c1=O)CO2 -10.8%
Cc1ccc(SC[C@H](C)CN2CC[C@H](O)CCC2=O)cc1 -4.87%
CN[C@@H]1[C@@H](O)[C@@H](O[C@@H]2[C@H](O)[C@H](O[C@H]3OC(CN)=CC[C@H]3N)[C@@H](N)C[C@H]2N)OCC1(C)O (stereo not given in full) -20.8%
COC(=O)/C(=C1\OC(=O)C(c2ccccc2)C1=O)c1ccccc1 (stereo not given) -7.48%
COc1cc2ccc(=O)oc2c(O)c1OCC=C(C)C 2.65%
COC(=O)[C@@H]1CCCN1Cc1ccc2c(c1)CN(Cc1ccc3c(c1)OCCO3)CCO2 -9.33%
CCCCOc1ccc(OCCCN2CCOCC2)cc1 -3.48% and -18.1%
CCCOc1ccc2nc(NC(=O)OC)[nH]c2c1 5.46%
FC(F)(F)c1cnc(-c2cc3c(c(OCC4CCCO4)c2)OCCN(Cc2cccn2-c2nccs2)C3)c(Cl)c1 (stereo not given) -8%
Cc1cccc(CNc2cc(-c3ccoc3)ncn2)c1 -12.4%
CC1CCC2C(C)(C)C3CC12CC[C@]3(C)O (stereo not given in full) -7.82%
Cc1ccc(SC[C@H](C)CN2CC[C@H](C(C)(C)C)CCC2=O)cc1 -16.4%
CN1CCN(c2ncc3nc(-c4ccc(F)cc4)c(=O)n(Cc4cccs4)c3n2)CC1 4.62%
CCCCNC(=O)[C@@H]1CC=C[C@@H]2CCN(Cc3ccccc3)C(=O)[C@@H]21 -2.34%
COc1ccc(CCCOC(Cn2ccnc2)c2ccc(OC)cc2)cc1 (stereo not given) 0.536% and -3.02%
C=CCN(C(=O)OC(C)(C)C)S(=O)(=O)NCc1ccccc1 -2.17%
C[N+]1(CC(=O)c2ccc(-c3ccccc3)cc2)CCOCC1 -9.04%
COc1ccc(C(C)=O)c(O)c1 -21.4%
Cc1cccc(CNCCn2cc(C(=O)Nc3ccccc3)nn2)c1 -7.41%
COC(=O)N1CCC2(CCCN(c3ccccn3)C2)CC1 -20.6%
CC1OC1P(=O)(O)O (stereo not given) -58.6%
COC(=O)/C(=C1/OC(=O)C(c2ccccc2)=C1O)c1ccccc1 -15.8%
Cc1cnc(-n2ncc(C(=O)NCCN3CCOCC3)c2C(C)C)nc1-c1ccc(F)cc1 5.31%
CC(=O)Oc1cccc(C(=O)O)c1OC(C)=O -11.9%
CCN(CC)C(=O)c1cc(S(=O)(=O)Cc2ccccc2)c(N2CCC(c3ccccc3)CC2)cc1N(CC)CCN(C)C -7.96%
COc1c(O)cc2c(c1O)[C@@H]1O[C@H](CO)[C@@H](O)[C@H](O)[C@H]1OC2=O -12.1%
CCC1OC(=O)C(C)[C@@H](O[C@H]2C[C@@](C)(OC)C(O)C(C)O2)C(C)[C@@H](O[C@@H]2OC(C)CC(N(C)C)C2O)[C@@](C)(O)CC(C)CN(C)C(C)C(O)[C@]1(C)O (stereo not given in full) 2.01%
CCCCC(F)(F)[C@@]1(O)CC[C@H]2[C@H](CC(=O)[C@@H]2CCCCCCC(=O)O)O1 -0.512%
Cc1cnc(SCc2ccccn2)nc1C1CCCN(C(=O)c2ccc(-c3ccccc3F)cc2)C1 (stereo not given) -5.97%
COc1ccccc1CNc1ncnc2ccc(-c3ccc4c(c3)OCO4)cc12 4.91%
COc1cc(-c2coc3cc(OCc4ccccc4)c(OC)c(O)c3c2=O)cc(O)c1OC 5.27%
CCn1c(-c2ccccc2F)nc2cc(NC(C)=O)cc(C(=O)NCC3CCOCC3)c21 -11.3%
Cc1cnc(-n2ncc(C(=O)NCCc3ccccn3)c2C)nc1-c1ccc(F)cc1 -7.45%
CC(C)C(NC(=O)C(Cc1ccc(O)cc1)NC(=O)C(NC(=O)C(F)(F)F)C(C)C)C(=O)O (stereo not drawn) (Tfa-Val-Tyr-Val-OH; configuration not given here) -7.05%
CC(C)c1nc(CN(C)C(=O)N[C@H](C(=O)N[C@@H](Cc2ccccc2)C[C@H](O)[C@H](Cc2ccccc2)NC(=O)OCc2cncs2)C(C)C)cs1 6.47% and -60.3%
